# Measured values taken from the supplement of paper PMC8728848.
# This is one part of the list.
# B1: PX14379A-bvu-539-28-539 (Bacteroides vulgatus) (protein)
# chain: EPYSEIIEEDYVPTEADEIALLATTYSQLRFVMDWYGLFDLQEESGDVIVTPTRPNGWDDGGTYKQMHKHTWDNQQGQPQSIWDYCYKGIANANKILKRADEGFFTEESKPKVVAEVKGVRALWYSILCDTHGNIPIQTSFSEEVPVQSTRKQVFDFIINELKEVMPNLPTEVNKSTYGRLTQWGAKCLMARMYLNAGVYTGTPMWNECLEQCNDIINSGLFSLETNYTDIFKTENSGCVETIFAIPYDEVYNEGDNNGPVFGAHMKFLSSNSRKVFNMQTTPWGGSAANPQFINSYDPDDMRLKYTWLQGDQYSPDGVLITTFPNKLPSIYKTDTDDGYRVGKYEIKVGAKSLLSNDFPYFRYTEVLLMKAECLLRLGQNETEAAHIVSQIRERAFRESAHPEKATVDAAWLKGDTHINYGTLDEKGQIDDAGNTEVVELGGLYDEWGWEFAAEARRRTDMIRFGTYQKKSWFNHTPTANDLNGNSILFPIHLDHLNTNPNLQQNPGYAGK
# Columns and labels:
# Test in all cases: glycan array binding signal (z-score within array); higher = stronger binding
# Details in all cases: glycan notation: IUPAC condensed, linker removed
# [1] = target: Man(a1-2)Man(a1-3)[Man(a1-2)Man(a1-6)]Man(a1-6)[Man(a1-2)Man(a1-2)Man(a1-3)]Man
# Outline: (§1)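 From the Consortium for Functional Glycomics database, 3228 arrays were curated, keeping only those whose protein sequence was available. Binding is given as a within-array Z-score averaged across arrays sharing a protein sequence and across linkers. Negative Z-scores can be read as non-binding.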
# [2] = target: Man(a1-2)Man(a1-3)[Man(a1-2)Man(a1-6)]Man(a1-6)[Man(a1-2)Man(a1-2)Man(a1-3)]Man(b1-4)GlcNAc(b1-4)GlcNAc
# Outline: as §1
# [3] = target: Man(a1-2)Man(a1-3)[Man(a1-6)]Man(a1-6)[Man(a1-2)Man(a1-3)]Man(b1-4)GlcNAc(b1-4)GlcNAc
# Outline: as §1
# [4] = target: Man(a1-2)Man(a1-6)[Man(a1-3)]Man(a1-6)[Man(a1-2)Man(a1-2)Man(a1-3)]Man
# Outline: as §1
# [5] = target: Man(a1-2)Man(a1-6)[Man(a1-3)]Man(a1-6)[Man(a1-2)Man(a1-2)Man(a1-3)]Man(b1-4)GlcNAc(b1-4)GlcNAc
# Outline: as §1
# Man(a1-3)[Man(a1-6)]Man = target: Man(a1-3)[Man(a1-6)]Man
# Outline: as §1
# [6] = target: Man(a1-3)[Man(a1-6)]Man(a1-6)[Man(a1-2)Man(a1-3)]Man(b1-4)GlcNAc(b1-4)GlcNAc
# Outline: as §1
# [7] = target: Man(a1-3)[Man(a1-6)]Man(a1-6)[Man(a1-3)]Man
# Outline: as §1
# [8] = target: Man(a1-3)[Man(a1-6)]Man(a1-6)[Man(a1-3)]Man(b1-4)GlcNAc(b1-4)GlcNAc
# Outline: as §1
# [9] = target: Man(a1-3)[Man(a1-6)]Man(b1-4)GlcNAc(b1-4)GlcNAc
# Outline: as §1
# [10] = target: Man(a1-3)[Man(a1-6)]Man(b1-4)GlcNAc(b1-4)[Fuc(a1-6)]GlcNAc
# Outline: as §1
# Man(a1-6)Man = target: Man(a1-6)Man
# Outline: as §1
# Man(b1-4)GlcNAc = target: Man(b1-4)GlcNAc
# Outline: as §1
# MurNAc(b1-4)GlcNAc = target: MurNAc(b1-4)GlcNAc
# Outline: as §1
# Neu5Ac(a2-3)Gal = target: Neu5Ac(a2-3)Gal
# Outline: as §1
# [11] = target: Neu5Ac(a2-3)Gal(b1-3)GalNAc
# Outline: as §1
# [12] = target: Neu5Ac(a2-3)Gal(b1-3)GalNAc(b1-3)Gal(a1-4)Gal(b1-4)Glc
# Outline: as §1
# [13] = target: Neu5Ac(a2-3)Gal(b1-3)GalNAc(b1-4)[Neu5Ac(a2-3)]Gal(b1-4)Glc
# Outline: as §1
# [14] = target: Neu5Ac(a2-3)Gal(b1-3)GalNAc(b1-4)[Neu5Ac(a2-8)Neu5Ac(a2-3)]Gal(b1-4)Glc
# Outline: as §1
# [15] = target: Neu5Ac(a2-3)Gal(b1-3)GalNAc6S
# Outline: as §1
# [16] = target: Neu5Ac(a2-3)Gal(b1-3)GlcNAc
# Outline: as §1
# [17] = target: Neu5Ac(a2-3)Gal(b1-3)GlcNAc(b1-2)Man
# Outline: as §1
# [18] = target: Neu5Ac(a2-3)Gal(b1-3)GlcNAc(b1-2)Man(a1-3)[GlcNAc(b1-4)][Neu5Ac(a2-3)Gal(b1-3)GlcNAc(b1-2)Man(a1-6)]Man(b1-4)GlcNAc(b1-4)GlcNAc
# Outline: as §1
# [19] = target: Neu5Ac(a2-3)Gal(b1-3)GlcNAc(b1-2)Man(a1-3)[Neu5Ac(a2-3)Gal(b1-3)GlcNAc(b1-2)Man(a1-6)]Man(b1-4)GlcNAc(b1-4)GlcNAc
# Outline: as §1
# [20] = target: Neu5Ac(a2-3)Gal(b1-3)GlcNAc(b1-3)Gal(b1-3)GlcNAc
# Outline: as §1
# [21] = target: Neu5Ac(a2-3)Gal(b1-3)GlcNAc(b1-3)Gal(b1-4)GlcNAc
# Outline: as §1
# [22] = target: Neu5Ac(a2-3)Gal(b1-3)GlcNAc(b1-3)GalNAc
# Outline: as §1
# [23] = target: Neu5Ac(a2-3)Gal(b1-3)GlcNAc(b1-4)Gal(b1-4)Glc
# Outline: as §1
# [24] = target: Neu5Ac(a2-3)Gal(b1-3)GlcNAc(b1-6)GalNAc
# Outline: as §1
# [25] = target: Neu5Ac(a2-3)Gal(b1-3)GlcNAc6S
# Outline: as §1
# [26] = target: Neu5Ac(a2-3)Gal(b1-3)[Fuc(a1-4)]GlcNAc
# Outline: as §1
# [27] = target: Neu5Ac(a2-3)Gal(b1-3)[Fuc(a1-4)]GlcNAc(b1-3)Gal(b1-3)[Fuc(a1-4)]GlcNAc
# Outline: as §1
# [28] = target: Neu5Ac(a2-3)Gal(b1-3)[Fuc(a1-4)]GlcNAc(b1-3)Gal(b1-4)[Fuc(a1-3)]GlcNAc
# Outline: as §1
# [29] = target: Neu5Ac(a2-3)Gal(b1-3)[GlcNAc(b1-6)]GalNAc
# Outline: as §1
# [30] = target: Neu5Ac(a2-3)Gal(b1-3)[Neu5Ac(a2-6)]GalNAc
# Outline: as §1
# [31] = target: Neu5Ac(a2-3)Gal(b1-3)[Neu5Ac(a2-6)]GlcNAc(b1-3)[Fuc(a1-3)[Gal(b1-4)]GlcNAc(b1-6)]Gal(b1-4)Glc
# Outline: as §1
# [32] = target: Neu5Ac(a2-3)Gal(b1-3)]Neu5Ac(a2-3)Gal(b1-4)]GlcNAc
# Outline: as §1
# Neu5Ac(a2-3)Gal(b1-4)Glc = target: Neu5Ac(a2-3)Gal(b1-4)Glc
# Outline: as §1
# [33] = target: Neu5Ac(a2-3)Gal(b1-4)GlcNAc
# Outline: as §1
# [34] = target: Neu5Ac(a2-3)Gal(b1-4)GlcNAc(b1-2)Man
# Outline: as §1
# [35] = target: Neu5Ac(a2-3)Gal(b1-4)GlcNAc(b1-2)Man(a1-3)[GlcNAc(b1-4)][Neu5Ac(a2-3)Gal(b1-4)GlcNAc(b1-2)Man(a1-6)]Man(b1-4)GlcNAc(b1-4)GlcNAc
# Outline: as §1
# [36] = target: Neu5Ac(a2-3)Gal(b1-4)GlcNAc(b1-2)Man(a1-3)[Neu5Ac(a2-3)Gal(b1-4)GlcNAc(b1-2)Man(a1-6)]Man(b1-4)GlcNAc(b1-4)GlcNAc
# Outline: as §1
# [37] = target: Neu5Ac(a2-3)Gal(b1-4)GlcNAc(b1-2)Man(a1-3)[Neu5Ac(a2-3)Gal(b1-4)GlcNAc(b1-2)Man(a1-6)]Man(b1-4)GlcNAc(b1-4)[Fuc(a1-6)]GlcNAc
# Outline: as §1
# [38] = target: Neu5Ac(a2-3)Gal(b1-4)GlcNAc(b1-2)Man(a1-3)[Neu5Ac(a2-6)Gal(b1-4)GlcNAc(b1-2)Man(a1-6)]Man(b1-4)GlcNAc(b1-4)GlcNAc
# Outline: as §1
# [39] = target: Neu5Ac(a2-3)Gal(b1-4)GlcNAc(b1-2)[Neu5Ac(a2-3)Gal(b1-4)GlcNAc(b1-4)]Man(a1-3)[GlcNAc(b1-4)][Neu5Ac(a2-3)Gal(b1-4)GlcNAc(b1-2)[Neu5Ac(a2-3)Gal(b1-4)GlcNAc(b1-6)]Man(a1-6)]Man(b1-4)GlcNAc(b1-4)GlcNAc
# Outline: as §1
binder,measurement,setting,value
B1,glycan array binding signal (z-score),[1],-0.294
same,glycan array binding signal (z-score),[2],-0.272
same,glycan array binding signal (z-score),[3],-0.379
same,glycan array binding signal (z-score),[4],-0.405
same,glycan array binding signal (z-score),[5],-0.361
same,glycan array binding signal (z-score),Man(a1-3)[Man(a1-6)]Man,0.057
same,glycan array binding signal (z-score),[6],-0.093
same,glycan array binding signal (z-score),[7],0.788
same,glycan array binding signal (z-score),[8],-0.172
same,glycan array binding signal (z-score),[9],-0.355
same,glycan array binding signal (z-score),[10],-0.375
same,glycan array binding signal (z-score),Man(a1-6)Man,-0.293
same,glycan array binding signal (z-score),Man(b1-4)GlcNAc,-0.085
same,glycan array binding signal (z-score),MurNAc(b1-4)GlcNAc,-0.459
same,glycan array binding signal (z-score),Neu5Ac(a2-3)Gal,-0.355
same,glycan array binding signal (z-score),[11],-0.25
same,glycan array binding signal (z-score),[12],-0.366
same,glycan array binding signal (z-score),[13],-0.068
same,glycan array binding signal (z-score),[14],-0.367
same,glycan array binding signal (z-score),[15],-0.441
same,glycan array binding signal (z-score),[16],-0.439
same,glycan array binding signal (z-score),[17],-0.425
same,glycan array binding signal (z-score),[18],-0.214
same,glycan array binding signal (z-score),[19],-0.248
same,glycan array binding signal (z-score),[20],-0.491
same,glycan array binding signal (z-score),[21],-0.23
same,glycan array binding signal (z-score),[22],-0.303
same,glycan array binding signal (z-score),[23],-0.389
same,glycan array binding signal (z-score),[24],-0.342
same,glycan array binding signal (z-score),[25],-0.108
same,glycan array binding signal (z-score),[26],-0.179
same,glycan array binding signal (z-score),[27],0.035
same,glycan array binding signal (z-score),[28],-0.182
same,glycan array binding signal (z-score),[29],-0.396
same,glycan array binding signal (z-score),[30],-0.423
same,glycan array binding signal (z-score),[31],-0.134
same,glycan array binding signal (z-score),[32],-0.124
same,glycan array binding signal (z-score),Neu5Ac(a2-3)Gal(b1-4)Glc,-0.077
same,glycan array binding signal (z-score),[33],-0.355
same,glycan array binding signal (z-score),[34],-0.388
same,glycan array binding signal (z-score),[35],0.102
same,glycan array binding signal (z-score),[36],0.069
same,glycan array binding signal (z-score),[37],-0.571
same,glycan array binding signal (z-score),[38],-0.456
same,glycan array binding signal (z-score),[39],0.054
